# Measured values as given in US20250214977A1, “STAT6 INHIBITORS AND USES THEREOF” (Kymera Therapeutics, Inc., priority 2024, published 2025).
# Target: T1, biotinylated truncated STAT6 (123-632)-avi (Homo sapiens, UniProt P42226)
# T1 sequence (P42226 123-632 limits assumed): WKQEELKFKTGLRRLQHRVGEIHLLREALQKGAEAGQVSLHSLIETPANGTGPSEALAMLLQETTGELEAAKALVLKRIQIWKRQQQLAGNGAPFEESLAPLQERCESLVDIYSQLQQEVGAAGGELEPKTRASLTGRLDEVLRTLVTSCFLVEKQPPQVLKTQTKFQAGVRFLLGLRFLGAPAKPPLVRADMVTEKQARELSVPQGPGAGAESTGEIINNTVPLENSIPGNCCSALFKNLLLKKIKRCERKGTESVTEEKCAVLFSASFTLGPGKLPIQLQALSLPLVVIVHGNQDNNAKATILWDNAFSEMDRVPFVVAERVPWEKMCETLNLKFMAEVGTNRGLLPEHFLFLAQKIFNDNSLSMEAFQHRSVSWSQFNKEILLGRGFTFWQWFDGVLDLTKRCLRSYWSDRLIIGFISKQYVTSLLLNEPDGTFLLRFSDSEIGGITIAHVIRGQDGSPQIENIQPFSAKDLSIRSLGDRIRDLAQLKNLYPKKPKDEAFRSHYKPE
# Test: Homogenous Time-Resolved Fluorescence (HTRF) binding assay
# Details: 0.15 nM biotinylated truncated STAT6 (123-632)-avi, 20 nM fluorescein-labeled probe, 30 minutes room temperature
row,Structure (SMILES),IC50 [nM]
1,CCN(Cc1ccccc1O)C(=O)c1cc2c(-c3ccccc3OC)cc(C3=CCCN(C(=O)CCn4ccnn4)C3)c(F)c2[nH]1 [Example I-1399],100 to 1000
2,COc1ccccc1-c1cc(C2=CCCN(C(=O)CCn3ccnn3)C2)c(F)c2[nH]c(C(=O)N3CCN(c4ccn5cnnc5c4)CC3)cc12 [Example I-1400],< 100
3,COc1ccccc1-c1cc(C2=CCCN(C(=O)CCn3ccnn3)C2)c(F)c2[nH]c(C(=O)N3CCC(Oc4ccccn4)CC3)cc12 [Example I-1401],< 100
4,COc1ccccc1-c1cc(C2=CCCN(C(=O)CCn3ccnn3)C2)c(F)c2[nH]c(C(=O)NC3(C#N)CC3)cc12 [Example I-1403],< 100
5,CCOC(=O)N1CCN(C(=O)c2cc3c(-c4ccccc4OC)cc(C4=CCCN(C(=O)CCn5ccnn5)C4)c(F)c3[nH]2)CC1 [Example I-1405],< 100
6,COCC1CCN(C(=O)c2cc3c(-c4ccccc4OC)cc(C4=CCCN(C(=O)CCn5ccnn5)C4)c(F)c3[nH]2)CC1 [Example I-1406],< 100
7,COc1ccc(CN(C)C(=O)c2cc3c(-c4ccccc4OC)cc(C4=CCCN(C(=O)CCn5ccnn5)C4)c(F)c3[nH]2)c(OC)c1 [Example I-1407],< 100
8,COc1ccccc1-c1cc(C2=CCCN(C(=O)CCn3ccnn3)C2)c(F)c2[nH]c(C(=O)N3CCN(CC(=O)N4CCOCC4)CC3)cc12 [Example I-1408],< 100
9,COc1ccccc1-c1cc(C2=CCCN(C(=O)CCn3ccnn3)C2)c(F)c2[nH]c(C(=O)Nc3nccc(=O)[nH]3)cc12 [Example I-1409],100 to 1000
10,COc1ccccc1-c1cc(C2=CCCN(C(=O)CCn3ccnn3)C2)c(F)c2[nH]c(C(=O)NC(CO)c3ccccc3Cl)cc12 (stereo not shown) [Example I-1410],100 to 1000
11,COc1ccccc1-c1cc(C2=CCCN(C(=O)CCn3ccnn3)C2)c(F)c2[nH]c(C(=O)N3CCCN(CCO)CC3)cc12 [Example I-1411],100 to 1000
12,COc1ccccc1-c1cc(C2=CCCN(C(=O)CCn3ccnn3)C2)c(F)c2[nH]c(C(=O)N3CCC(n4cccn4)CC3)cc12 [Example I-1412],< 100
13,COc1ccccc1-c1cc(C2=CCCN(C(=O)CCn3ccnn3)C2)c(F)c2[nH]c(C(=O)N3CCC(O)(C(F)(F)F)CC3)cc12 [Example I-1414],100 to 1000
14,CNC(=O)C1CCN(C(=O)c2cc3c(-c4ccccc4OC)cc(C4=CCCN(C(=O)CCn5ccnn5)C4)c(F)c3[nH]2)CC1 [Example I-1416],< 100
15,COc1ccccc1-c1cc(C2=CCCN(C(=O)CCn3ccnn3)C2)c(F)c2[nH]c(C(=O)Nc3snc(C)c3C#N)cc12 [Example I-1417],100 to 1000
16,COc1ccccc1-c1cc(C2=CCCN(C(=O)CCn3ccnn3)C2)c(F)c2[nH]c(C(=O)N3CCN(Cc4nccs4)CC3)cc12 [Example I-1418],< 100
17,COc1ccccc1-c1cc(C2=CCCN(C(=O)CCn3ccnn3)C2)c(F)c2[nH]c(C(=O)N3CC(C)(C)c4ccccc43)cc12 [Example I-1419],10000 to 100000
18,COc1ccccc1-c1cc(C2=CCCN(C(=O)CCn3ccnn3)C2)c(F)c2[nH]c(C(=O)N3Cc4cc(Br)ccc4CC3C)cc12 (stereo not shown) [Example I-1420],100 to 1000
19,COc1ccccc1-c1cc(C2=CCCN(C(=O)CCn3ccnn3)C2)c(F)c2[nH]c(C(=O)N3CCc4[nH]c5ccccc5c4C3)cc12 [Example I-1421],< 100
20,COc1ccccc1-c1cc(C2=CCCN(C(=O)CCn3ccnn3)C2)c(F)c2[nH]c(C(=O)NC(C)c3nc(C)cs3)cc12 (stereo not shown) [Example I-1422],1000 to 10000
21,COc1ccccc1-c1cc(C2=CCCN(C(=O)CCn3ccnn3)C2)c(F)c2[nH]c(C(=O)N(C)Cc3csc(C(C)C)n3)cc12 [Example I-1423],< 100
22,COc1ccccc1-c1cc(C2=CCCN(C(=O)CCn3ccnn3)C2)c(F)c2[nH]c(C(=O)N(C)CCC(C)O)cc12 (stereo not shown) [Example I-1424],< 100
23,COc1ccccc1-c1cc(C2=CCCN(C(=O)CCn3ccnn3)C2)c(F)c2[nH]c(C(=O)N3CCC(c4noc(C(C)C)n4)CC3)cc12 [Example I-1425],< 100
24,COc1ccccc1-c1cc(C2=CCCN(C(=O)CCn3ccnn3)C2)c(F)c2[nH]c(C(=O)N3CCC(NC(C)=O)CC3)cc12 [Example I-1426],< 100
25,COc1ccccc1-c1cc(C2=CCCN(C(=O)CCn3ccnn3)C2)c(F)c2[nH]c(C(=O)N3CCN(Cc4ncccc4O)CC3)cc12 [Example I-1427],< 100
26,COc1ccccc1-c1cc(C2=CCCN(C(=O)CCn3ccnn3)C2)c(F)c2[nH]c(C(=O)N3CCN(c4cnc(N5CCSCC5)nc4)CC3)cc12 [Example I-1428],< 100

row,Structure (SMILES),IC50 [nM]
1,COc1ccccc1-c1cc(C2=CCCN(C(=O)CCn3ccnn3)C2)c(F)c2[nH]c(C(=O)N3CCN(c4cnc(O)c5cnccc45)CC3)cc12 [Example I-1429],< 100
2,COc1ccc(N2CCN(C(=O)c3cc4c(-c5ccccc5OC)cc(C5=CCCN(C(=O)CCn6ccnn6)C5)c(F)c4[nH]3)CC2)nc1 [Example I-1430],< 100
3,COc1ccccc1-c1cc(C2=CCCN(C(=O)CCn3ccnn3)C2)c(F)c2[nH]c(C(=O)N3CCN(c4ccc5[nH]cnc5n4)CC3)cc12 [Example I-1431],< 100
4,COc1cc2c(N3CCN(C(=O)c4cc5c(-c6ccccc6OC)cc(C6=CCCN(C(=O)CCn7ccnn7)C6)c(F)c5[nH]4)CC3)c(C#N)cnc2cc1O [Example I-1432],100 to 1000
5,COc1ccccc1-c1cc(C2=CCCN(C(=O)CCn3ccnn3)C2)c(F)c2[nH]c(C(=O)N3CCN(c4ccnc5[nH]cc(C#N)c45)CC3)cc12 [Example I-1433],< 100
6,COc1cc(OC)c(N2CCN(C(=O)c3cc4c(-c5ccccc5OC)cc(C5=CCCN(C(=O)CCn6ccnn6)C5)c(F)c4[nH]3)CC2)c(OC)c1 [Example I-1434],100 to 1000
7,COc1ccccc1-c1cc(C2=CCCN(C(=O)CCn3ccnn3)C2)c(F)c2[nH]c(C(=O)N3CCN(c4cnc5cc[nH]c5n4)CC3)cc12 [Example I-1435],< 100
8,COc1ccccc1-c1cc(C2=CCCN(C(=O)CCn3ccnn3)C2)c(F)c2[nH]c(C(=O)N3CCC(c4c(OC)cccc4OC)CC3)cc12 [Example I-1436],100 to 1000
9,COc1ccccc1-c1cc(C2=CCCN(C(=O)CCn3ccnn3)C2)c(F)c2[nH]c(C(=O)N3CCN(c4ccc(C5CC5)cn4)CC3)cc12 [Example I-1437],< 100
10,COc1ccccc1-c1cc(C2=CCCN(C(=O)CCn3ccnn3)C2)c(F)c2[nH]c(C(=O)N3CCN(c4cc5cn[nH]c(=O)c5cn4)CC3)cc12 [Example I-1438],< 100
11,COc1ccccc1-c1cc(C2=CCCN(C(=O)CCn3ccnn3)C2)c(F)c2[nH]c(C(=O)N3CCN(c4cc(F)c(OC)c(F)c4)CC3)cc12 [Example I-1439],100 to 1000
12,COc1ccccc1-c1cc(C2=CCCN(C(=O)CCn3ccnn3)C2)c(F)c2[nH]c(C(=O)N3CCN(c4cnc5ccncc5c4)CC3)cc12 [Example I-1440],< 100
13,COc1ccccc1-c1cc(C2=CCCN(C(=O)CCn3ccnn3)C2)c(F)c2[nH]c(C(=O)N3CCC(Nc4ncccc4OC)CC3)cc12 [Example I-1441],< 100
14,CCS(=O)(=O)c1ccc(N2CCN(C(=O)c3cc4c(-c5ccccc5OC)cc(C5=CCCN(C(=O)CCn6ccnn6)C5)c(F)c4[nH]3)CC2)nc1 [Example I-1442],< 100
15,COc1ccccc1-c1cc(C2=CCCN(C(=O)CCn3ccnn3)C2)c(F)c2[nH]c(C(=O)N3CCN(c4cccc(-c5ccccn5)n4)CC3)cc12 [Example I-1443],< 100
16,COc1ccccc1-c1cc(C2=CCCN(C(=O)CCn3ccnn3)C2)c(F)c2[nH]c(C(=O)N3CCN(c4cc5ccccc5cn4)CC3)cc12 [Example I-1444],< 100
17,COc1ccccc1-c1cc(C2=CCCN(C(=O)CCn3ccnn3)C2)c(F)c2[nH]c(C(=O)N3CCN(c4nc(N5CCOCC5)c5sccc5n4)CC3)cc12 [Example I-1446],< 100
18,COc1ccccc1-c1cc(C2=CCCN(C(=O)CCn3ccnn3)C2)c(F)c2[nH]c(C(=O)N3CCN(c4cc(OC)c5sccc5n4)CC3)cc12 [Example I-1447],< 100
19,COc1ccccc1-c1cc(C2=CCCN(C(=O)CCn3ccnn3)C2)c(F)c2[nH]c(C(=O)N3CCN(c4cc(F)c5nccnc5c4)CC3)cc12 [Example I-1448],< 100
20,COc1ccccc1-c1cc(C2=CCCN(C(=O)CCn3ccnn3)C2)c(F)c2[nH]c(C(=O)N3CCN(c4ncc5ccc(F)cc5n4)CC3)cc12 [Example I-1450],< 100
21,COc1ccccc1-c1cc(C2=CCCN(C(=O)CCn3ccnn3)C2)c(F)c2[nH]c(C(=O)N3CCN(c4nc(C)nc5c4oc4ccccc45)CC3)cc12 [Example I-1451],< 100
22,COc1ccccc1-c1cc(C2=CCCN(C(=O)CCn3ccnn3)C2)c(F)c2[nH]c(C(=O)N3CCN(c4ccc(N5CCOCC5)c(F)c4)CC3)cc12 [Example I-1452],100 to 1000
23,COc1ccccc1-c1cc(C2=CCCN(C(=O)CCn3ccnn3)C2)c(F)c2[nH]c(C(=O)N3CCN(c4ncc(F)c(O)n4)CC3)cc12 [Example I-1453],< 100
24,COc1ccccc1-c1cc(C2=CCCN(C(=O)CCn3ccnn3)C2)c(F)c2[nH]c(C(=O)N3CCN(c4cccc5c4-c4ccccc4C5(C)C)CC3)cc12 [Example I-1454],1000 to 10000
25,COc1ccccc1-c1cc(C2=CCCN(C(=O)CCn3ccnn3)C2)c(F)c2[nH]c(C(=O)N3CCN(c4cc5c(O)ncnc5cn4)CC3)cc12 [Example I-1455],< 100
26,COc1ccccc1-c1cc(C2=CCCN(C(=O)CCn3ccnn3)C2)c(F)c2[nH]c(C(=O)N3CC4(C3)CN(c3ncccc3OC)C4)cc12 [Example I-1456],< 100
